Data reported in PubChem BioAssay AID1745853 (National Center for Advancing Translational Sciences (NCATS), 2022).
The list shows a part of the results. Shown are side measurements of this screen, not its main read-out; they come without a call.

Legend:
Test in all cases: Primary Screen for Target Class Profiling of Small Molecule Inhibitors of Methyltransferases
[1] = target: Glycine N-methyltransferase (Homo sapiens) (UniProt Q14749); conditions: purified enzyme, MTase-Glo SAH luminescence; measured here: GNMT inhibition; at 40 µM; stronger effect = lower value
Outline: (§1)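 Each enzyme was reacted with SAM and its substrate, with compounds tested once at 40 uM; SAH formed was read by MTase-Glo luminescence.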

[2] = target: Guanidinoacetate N-methyltransferase (Homo sapiens) (UniProt Q14353); conditions: purified enzyme, MTase-Glo SAH luminescence; measured here: GAMT inhibition; at 40 µM; stronger effect = lower value
Outline: as §1

[3] = target: Histamine N-methyltransferase (Homo sapiens) (UniProt P50135); conditions: purified enzyme, MTase-Glo SAH luminescence; measured here: HNMT inhibition; at 40 µM; stronger effect = lower value
Outline: as §1

[4] = target: Nicotinamide N-methyltransferase (Homo sapiens) (UniProt P40261); conditions: purified enzyme, MTase-Glo SAH luminescence; measured here: NNMT inhibition; at 40 µM; stronger effect = lower value
Outline: as §1

[5] = target: Phenylethanolamine N-methyltransferase (Homo sapiens) (UniProt P11086); conditions: purified enzyme, MTase-Glo SAH luminescence; measured here: PNMT inhibition; at 40 µM; stronger effect = lower value
Outline: as §1
% is set by controls: 0 for no effect and ±100 for the full control effect.

Row | SMILES | activity change, negative = inhibition [1] [%] | activity change, negative = inhibition [2] [%] | activity change, negative = inhibition [3] [%] | activity change, negative = inhibition [4] [%] | activity change, negative = inhibition [5] [%]
1 | COc1cc(/C=C/C(=O)OCC2OC(OC3(CO)OC(CO)C(O)C3O)C(O)C(O)C2O)ccc1O (stereo unspecified) | 2.59 | 3.86 | 9.08 | -7.97 | -0.638
2 | COC(=O)c1ncn2c1C(=O)N(C1CC1)C(C)(C(=O)NCCCOC(C)C)C2 (stereo unspecified) | -6.41 | 4.68 | -4.27 | -4.98 | -2.32
3 | C=C1C(=O)O[C@@H]2/C=C(/C)[C@@H](OC(C)=O)C/C=C(\C)C[C@@H](OC(=O)/C(=C/CO)CO)[C@@H]12 | -5.27 | -0.388 | 0.212 | -11.3 | 3.52
4 | C/C=C(\C)C(=O)OC1C2(O)CC3=C4CC(=O)OC(c5ccoc5)C4(C)CCC3C(C)(C2=O)C(C(OC(C)=O)C(=O)OC)C1(C)C (stereo unspecified) | 3.37 | 6.23 | 6.54 | -11.2 | -3.73
5 | Cc1ccc(CNC(=O)C(C)n2ccc3cc(S(=O)(=O)N4CCCCC4)ccc32)cc1 (stereo unspecified) | 0.403 | 6.76 | -3.59 | -9.55 | -0.805
6 | COCc1cccc(-c2n[nH]c3c2CC(=O)N(CCc2ccncc2)C3)c1 | -25.6 | -12 | -19.5 | -14.3 | -25.3
7 | COc1cccc(Nc2cn(C)c(=O)n3cc(COc4ccccc4)nc23)c1 | -12.6 | -7.76 | -6.16 | -11.8 | -23.1
8 | CCCCCCCc1ccc(CCc2cccc(O)c2C(=O)O)cc1 | -32.7 |  | -19.6 | -35.6 | 11.4
9 | Cn1c(=O)c2ccc(C(=O)NC3CCCCC3)cc2n2c(SCC(=O)NC3CCCCC3)nnc12 | -0.864 | 5.93 | 10 | 6.04 | 8.15
10 | CC(C)c1ccc(CN2CC(CNC(=O)C3CCOCC3)C3(C2)CN(c2ccccc2)C3)cc1 (stereo unspecified) | -2.71 | -1.02 | -0.672 | -3.88 | 1.83
11 | COC[C@H]1C[C@@H](NC(=O)c2c(-c3ccccc3)noc2C)[C@H](O)[C@@H]1O | -2.47 | -1.98 | -2.89 | 3.83 | -2.08
12 | COc1ccc(NC(=O)N2CCOC(c3ccc(Cl)cc3)C2)c(C)c1 (stereo unspecified) | -3.96 | -8.45 | -2.83 | -9.81 | -5.86
13 | Nc1nccc(N2CCC3(CCC(=O)N(CC4CCCO4)C3)CC2)n1 (stereo unspecified) | 1.85 | 0.177 | -42.7 | -5.21 | 14.3
14 | CC1(C(=O)NC2CCCCC2)Cn2c(cc3ccccc32)C(=O)N1Cc1ccccc1F (stereo unspecified) | -2.45 | 0 | 5.05 | -0.527 | -5.68
15 | C=CCNC(=O)c1cnn2cc(C)ccc12 | -3.57 | -0.976 | -0.522 | -6.26 | -3.82
16 | CCN(CC)CC(O)CN1CCn2c3c(c4cc(C)ccc42)CCCC31 (stereo unspecified) | 3.82 | 0 | 2.55 | 9.45 | 2.99
17 | CC(C)CCn1c(=O)c2ccccc2n2c(=O)n(CC(=O)N3CCN(c4ccccc4F)CC3)nc12 | -4.43 | 2.98 | 0.201 | -8.96 | 0.218
18 | C/C(=C\CCC(C)CCO)C(=O)OC[C@H]1O[C@@H](O[C@@H]2OC=C(C(=O)O)[C@H]3CC[C@](C)(O)[C@@H]23)C(O)[C@@H](O)C1O (stereo partly specified) | -0.025 | 1.27 | 10.1 | -10.9 | 4.36
19 | Cc1cc(C)c(NS(=O)(=O)c2ccc3[nH]c4c(c3c2)CCCC4)c(C)c1 | 6.51 | 0 | 4.98 | -0.777 | 1.26

Row | SMILES | activity change, negative = inhibition [1] [%] | activity change, negative = inhibition [2] [%] | activity change, negative = inhibition [3] [%] | activity change, negative = inhibition [4] [%] | activity change, negative = inhibition [5] [%]
20 | CC(C)(N)C(=O)N[C@H](COCc1ccccc1)C(=O)N1CCC2(CC1)CN(S(C)(=O)=O)c1ccccc12 | 4.78 | 7.44 | 5.88 | -7.61 | -0.602
21 | CC(C)CCn1c(=O)c2ccc(C(=O)NC3CCCC3)cc2n2c(=O)n(Cc3ccc(F)cc3)nc12 | -2.19 | 3.53 | -0.035 | 2.39 | -0.059
22 | COc1ccc(S(=O)(=O)N2CCC(Cc3nncn3C(C)C)CC2)cc1 | 5.24 | 0.419 | 13 | 7.55 | 9.63
23 | CC(C)Cc1cc(C(=O)N2CCOC(C(F)(F)F)C2)n[nH]1 (stereo unspecified) | 0.187 | 2.15 | 3.24 | -0.917 | -0.04
24 | CCc1nc2cc(N3CCCC(C(=O)O)C3)cnc2nc1CC (stereo unspecified) | -4.37 | -4.33 | -2.25 | -7.61 | -8.65
25 | CC(O)C/C=C/C=C/C(=O)OC1C=C2COC(=O)C2(O)C2(C)CCCC(C)(C)C12 (stereo unspecified) | 0 | 2.52 | 1.83 | -14.8 | 2.19
26 | Cc1ccccc1CNC(=O)c1cc2n(n1)CC(C)(C(=O)NCc1ccccc1)N(C)C2=O (stereo unspecified) | 1.12 | 0 | 2.17 | 3.12 | 0.367
27 | O=C(COC(=O)C(Cc1c[nH]c2ccccc12)NC(=O)c1ccco1)c1ccccc1 (stereo unspecified) | -1.95 | 3.09 | 2.58 | -1.25 | 2.46
28 | CCc1cc(C(=O)N2CCC3(CCC(=O)N(CCc4cnc[nH]4)C3)CC2)cs1 | -3 | -6.83 | -2 | -7.85 | -6.61
29 | CCC[C@@H]1C[C@@H](C(=O)N[C@@H]([C@H]2O[C@H](SC)[C@H](O)[C@@H](O)[C@@H]2O)[C@@H](C)O)N(C)C1 | 2.5 |  | 6.31 |  | 
30 | C=C1C(=O)O[C@@H]2[C@H]1CC[C@H](C)C(CCC(=O)O)C2(C)O (stereo partly specified) | 0 | 2.69 | 9.67 | -6.54 | 4.82
31 | Cc1ccc(CNC(=O)C2(C)Cn3nc(C(=O)N4CCOCC4)cc3C(=O)N2C)cc1 (stereo unspecified) | 4.56 | 3.42 | 6.26 | 0.506 | 1.63
32 | Cc1cccc(NC(=O)CN(C)S(=O)(=O)c2ccc3[nH]c4c(c3c2)CCCC4)c1 | 2.18 | 0 | -0.956 | -2.84 | 0.537
33 | N#Cc1cccc(C(=O)N2CCNc3cnc(Nc4cccc(F)c4)nc3C2)c1 | -11.2 | -7.11 | -8.33 | -19.5 | -11.2
34 | CC[N+](CC)(CC)CC(=O)Nc1c(C)cccc1C | 2.81 | 11.6 | 6.47 | -1.02 | 11.4
35 | Cc1ccc(-c2n[nH]n3c2nc(=O)c2ccc(C(=O)NCc4ccc(Cl)cc4)cc23)cc1 | -3.41 | 0 | -0.181 | 0.632 | -1.4
36 | O=C(Cc1c(F)cccc1F)Nc1cc(OCc2ccc(Cl)cc2)ccn1 | 3.73 | -2.18 | -3.49 | -17.4 | 3.54
37 | CN1C(=O)c2cc(C(=O)Nc3cccc(F)c3)nn2CC1(C)C(=O)NC1CCCCCC1 (stereo unspecified) | -2.99 | 3.63 | 5 | -1.36 | 0.388
38 | CC(=O)Nc1ccc(C(=O)N2CCC3(CC2)CN(C)CCN3C)c(C)c1 | 2.64 | 1.8 | 0.683 | -5.32 | 5.22
